Where “and” joins values, the source holds several entries; their conditions need not be identical. Equal values may be shown once. The inconclusive results got no clear call from the source; some entries with a clear call stand among them for comparison. For some assays here: Potencies of inconclusive entries are doubtful fits and often do not repeat. Calls of active or inactive are those of the source. Unless noted, the call rests on the fitted dose curve; in most records, active means well fitted curve in the direction sought with a large enough effect in the repeat runs; inconclusive means weak or mixed curves; inactive means no such curve, though single readings can be large; an effect the other way counts as inactive or inconclusive.
Columns and labels:
[1] = qHTS assay to identify small molecule antagonists of the thyroid receptor (TR) signaling pathway - cell viability counter screen (AID 743064); settings: GH3.TRE-Luc viability, CellTiter-Fluor, 24 h; activity change, negative = cytotoxic: at 70.3 µM (top of the series) unless noted; further: potency means the concentration at half of the fitted maximal effect; nearly all actives have a fitted effect of over 50% in size
Outline: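 Fluorescence from CellTiter-Fluor, added after 23.5 h exposure at 37 °C, reported viability of GH3.TRE-Luc cells co-treated with compound and 1 nM T3. Measured in the same wells as the luciferase TR readout.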

[2] = target: Peroxisome proliferator-activated receptor gamma (Homo sapiens) (UniProt P37231); test: qHTS assay to identify small molecule antagonists of the peroxisome proliferator-activated receptor gamma (PPARg) signaling pathway (AID 743191; calls by dose curve; further: nearly all actives have a fitted effect of over 30% in size; further: potency means the concentration at half of the fitted maximal effect); settings: HEK293H PPARg-UAS-bla, beta-lactamase ratio, antagonist, 17 h; ratio activity, negative = inhibition: at 62.6 µM (top of the series) unless noted
UniProt P37231, sequence (P37231 whole entry, looked up): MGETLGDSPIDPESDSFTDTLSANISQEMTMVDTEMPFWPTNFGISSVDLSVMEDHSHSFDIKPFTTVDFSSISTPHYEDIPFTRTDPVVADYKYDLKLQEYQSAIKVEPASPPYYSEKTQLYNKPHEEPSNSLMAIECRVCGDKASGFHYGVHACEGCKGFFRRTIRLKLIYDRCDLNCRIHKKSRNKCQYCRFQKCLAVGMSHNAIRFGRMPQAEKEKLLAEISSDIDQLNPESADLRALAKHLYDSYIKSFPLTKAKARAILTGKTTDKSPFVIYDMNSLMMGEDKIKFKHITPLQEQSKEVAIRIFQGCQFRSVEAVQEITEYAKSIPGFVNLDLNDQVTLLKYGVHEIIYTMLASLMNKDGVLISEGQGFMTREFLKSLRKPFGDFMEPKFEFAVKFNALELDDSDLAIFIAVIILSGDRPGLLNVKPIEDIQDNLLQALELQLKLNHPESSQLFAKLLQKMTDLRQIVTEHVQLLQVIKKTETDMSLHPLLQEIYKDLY
Outline: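 GeneBLAzer PPARg UAS-bla HEK293H cells carrying a UAS-driven beta-lactamase reporter were plated at 3000 cells/well, preincubated 5 h at 37C, then given compound for 17 h at 37C; LiveBLAzer B/G FRET substrate was read after 1 h at room temperature.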

[3] = qHTS assay for small molecule agonists of the antioxidant response element (ARE) signaling pathway (AID 743202; active means well fitted activation curve with a large enough effect in the signal ratio in the repeat runs, not every such curve was filed as active; inconclusive means weak or mixed curves, or effect the other way; inactive means no such curve, though single readings can be large or run the other way; the % refers to the signal ratio; further: potency means the concentration at half of the fitted maximal effect); settings: HepG2 ARE-bla reporter, beta-lactamase FRET, 16 h
Outline: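 Compounds delivered in DMSO to ARE-bla HepG2 cells (2,000 cells/well, pre-incubated 5 h) and left 16 h at 37 C. LiveBLAzer B/G FRET substrate then added for 2 h at RT before fluorescence reading.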

[4] = target: Vitamin D3 receptor (Homo sapiens) (UniProt P11473); test: qHTS assay to identify small molecule antagonists of the vitamin D receptor (VDR) signaling pathway (AID 743223; active means well fitted inhibition curve with a large enough effect in the signal ratio in the repeat runs, not every such curve was filed as active; inconclusive means weak or mixed curves, or effect the other way; inactive means no such curve, though single readings can be large or run the other way; the % refers to the signal ratio; further: potency means the concentration at half of the fitted maximal effect); settings: VDR-UAS-bla HEK293T, beta-lactamase FRET ratio, 16 h; activity change, negative = inhibition: at 61 µM (top of the series) unless noted
UniProt P11473, sequence (P11473 whole entry, looked up): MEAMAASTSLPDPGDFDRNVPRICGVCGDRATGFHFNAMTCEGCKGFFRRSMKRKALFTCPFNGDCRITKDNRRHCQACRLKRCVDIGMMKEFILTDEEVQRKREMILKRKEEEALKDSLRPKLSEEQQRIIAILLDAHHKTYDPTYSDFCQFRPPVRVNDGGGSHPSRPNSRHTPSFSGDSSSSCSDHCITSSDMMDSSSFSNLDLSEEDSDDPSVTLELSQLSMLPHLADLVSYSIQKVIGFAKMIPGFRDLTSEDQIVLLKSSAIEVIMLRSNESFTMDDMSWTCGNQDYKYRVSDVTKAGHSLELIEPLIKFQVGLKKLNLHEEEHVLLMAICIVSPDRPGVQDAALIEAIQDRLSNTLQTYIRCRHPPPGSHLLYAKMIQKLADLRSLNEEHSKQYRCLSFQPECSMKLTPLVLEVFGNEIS
Outline: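 Antagonist mode uses 1alpha,25-dihydroxyvitamin D3 at 3 nM final as stimulus. VDR-bla cells receive compounds in DMSO, incubate 16 h at 37C, then a beta-lactamase FRET substrate for 2 h at room temperature before fluorescence measurement.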

[5] = qHTS assay to identify small molecule antagonists of the estrogen related receptor (ERR) signaling pathway from Tox21 library - cell viability counter screen (AID 1224834); further: on the % scale 0 is the no-effect control and ±100 the full control effect; nearly all actives have a fitted effect of over 30% in size
Outline: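 CellTiter-Fluor fluorescence measured; ERR cells; 17.5 h compound incubation at 37 C; 30 min reagent step.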

[6] = qHTS RealTime-Glo MT Cell Viability Assay in HEK293 cells - 24 hour (AID 1224886); further: top concentration of the series differs between compounds; on the % scale 0 is the no-effect control and ±100 the full control effect; nearly all actives have a fitted effect of over 50% in size
Outline: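 Reads taken at 0, 8, 16, 24, 32 and 40 h from the same wells. HEK293 cells (600/well) carried RealTime-Glo reagents from seeding, with compound added after a 5 h settle at 37 C.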

[7] = target: Estrogen receptor beta (Homo sapiens) (UniProt Q92731); test: qHTS assay to identify small molecule antagonists of the estrogen receptor beta (ER-beta) signaling pathway (AID 1259378; active means well fitted inhibition curve with a large enough effect in the signal ratio in the repeat runs, not every such curve was filed as active; inconclusive means weak or mixed curves, or effect the other way; inactive means no such curve, though single readings can be large or run the other way; the % refers to the signal ratio; further: on the % scale 0 is the no-effect control and ±100 the full control effect); settings: ER-beta-UAS-bla HEK293T, beta-lactamase FRET ratio, 16 h; activity, negative = inhibition: at 92.4 µM (top of the series) unless noted
Outline: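 ER-beta-UAS-bla HEK293T (GripTite) cells in 2% charcoal-stripped FBS medium were preincubated 6 hr at 37C, dosed with compound, then stimulated with 1 nM E2 (final) for 16 hr; beta-lactamase reporter read by B/G FRET fluorescence after 2 hr substrate loading.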

[8] = target: Cytochrome P450 1A2 (Homo sapiens) (UniProt P05177); test: Cytochrome P450 Family 1 Subfamily A Member 2 (CYP1A2) small molecule antagonists: luciferase reporter qHTS assay (AID 1671199); further: nearly all actives have a fitted effect of over 50% in size; further: potency means the concentration at half of the fitted maximal effect
UniProt P05177, sequence (P05177 whole entry, looked up): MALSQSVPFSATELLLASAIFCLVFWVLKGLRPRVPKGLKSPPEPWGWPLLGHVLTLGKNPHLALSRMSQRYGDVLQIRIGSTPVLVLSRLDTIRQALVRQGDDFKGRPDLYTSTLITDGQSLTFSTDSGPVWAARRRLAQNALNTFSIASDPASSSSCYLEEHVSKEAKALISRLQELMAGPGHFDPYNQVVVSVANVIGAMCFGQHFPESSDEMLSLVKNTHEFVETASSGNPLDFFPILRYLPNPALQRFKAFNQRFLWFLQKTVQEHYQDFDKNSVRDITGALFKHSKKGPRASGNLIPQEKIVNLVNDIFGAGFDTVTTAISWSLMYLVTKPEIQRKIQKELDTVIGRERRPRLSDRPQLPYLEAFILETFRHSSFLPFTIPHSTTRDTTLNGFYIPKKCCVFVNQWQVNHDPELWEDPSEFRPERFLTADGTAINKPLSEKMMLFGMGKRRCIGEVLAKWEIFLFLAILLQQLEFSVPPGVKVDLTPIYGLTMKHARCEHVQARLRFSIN
Outline: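 CYP1A2 turnover of a luminogenic substrate was quantified after 1 h with NADPH regeneration at room temperature. Furafylline served as positive control.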

[9] = qHTS assay for small molecule disruptors of the mitochondrial membrane potential (AID 720635); settings: HepG2 mitochondrial membrane potential, Mito-MPS dye ratio; ratio activity, negative = MMP loss: at 83.2 µM (top of the series) unless noted; further: potency means the concentration at half of the fitted maximal effect
Outline: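 HepG2 cells (2,000/well) attached overnight at 37C, then took compound for 1 hr at 37C, 5% CO2. Mito-MPS dye was added for 30 min; fluorescence was read at 490/535 nm (monomers) and 540/590 nm (aggregates).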

[10] = qHTS assay for identifying genotoxic compounds that show differential cytotoxicity against isogenic chicken DT40 cell lines with known DNA damage response pathways - Rev3 mutant cell line (AID 743014); settings: chicken DT40 Rev3-/- viability, CellTiter-Glo, 40 h; activity, negative = cytotoxicity: at 68.4 µM (top of the series) unless noted; further: potency means the concentration at half of the fitted maximal effect; nearly all actives have a fitted effect of over 55% in size
[11] = target: Cytochrome P450 2D6 (Homo sapiens) (UniProt P10635); test: Cytochrome P450 Family 2 Subfamily D Member 6 (CYP2D6) small molecule antagonists: luciferase reporter qHTS assay (AID 1671196); further: potency means the concentration at half of the fitted maximal effect; nearly all actives have a fitted effect of over 50% in size
UniProt P10635, sequence (P10635 whole entry, looked up): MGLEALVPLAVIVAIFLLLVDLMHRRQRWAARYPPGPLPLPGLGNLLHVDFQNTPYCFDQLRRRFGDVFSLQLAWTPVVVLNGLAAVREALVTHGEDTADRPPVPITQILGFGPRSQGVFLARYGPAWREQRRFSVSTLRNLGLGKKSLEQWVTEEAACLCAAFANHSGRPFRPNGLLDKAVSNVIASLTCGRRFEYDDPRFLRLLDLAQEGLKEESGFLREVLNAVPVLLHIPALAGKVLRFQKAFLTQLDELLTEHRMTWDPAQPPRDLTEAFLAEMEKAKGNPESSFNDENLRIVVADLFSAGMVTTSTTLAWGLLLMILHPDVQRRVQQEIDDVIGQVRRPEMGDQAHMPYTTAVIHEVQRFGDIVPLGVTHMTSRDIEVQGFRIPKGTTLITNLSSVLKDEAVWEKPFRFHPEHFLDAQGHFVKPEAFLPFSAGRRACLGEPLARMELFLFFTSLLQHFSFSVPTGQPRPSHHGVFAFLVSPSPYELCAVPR
Outline: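 Luminescence (RLU), read 20 min after detection reagent, indicated CYP2D6 conversion of proluciferin to luciferin during a 1 h NADPH-dependent reaction at room temperature.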

[12] = target: Cytochrome P450 2C9 (Homo sapiens) (UniProt P11712); test: Cytochrome P450 Family 2 Subfamily C Member 9 (CYP2C9) small molecule antagonists: luciferase reporter qHTS assay (AID 1671198); further: nearly all actives have a fitted effect of over 50% in size; further: potency means the concentration at half of the fitted maximal effect
UniProt P11712, sequence (P11712 whole entry, looked up): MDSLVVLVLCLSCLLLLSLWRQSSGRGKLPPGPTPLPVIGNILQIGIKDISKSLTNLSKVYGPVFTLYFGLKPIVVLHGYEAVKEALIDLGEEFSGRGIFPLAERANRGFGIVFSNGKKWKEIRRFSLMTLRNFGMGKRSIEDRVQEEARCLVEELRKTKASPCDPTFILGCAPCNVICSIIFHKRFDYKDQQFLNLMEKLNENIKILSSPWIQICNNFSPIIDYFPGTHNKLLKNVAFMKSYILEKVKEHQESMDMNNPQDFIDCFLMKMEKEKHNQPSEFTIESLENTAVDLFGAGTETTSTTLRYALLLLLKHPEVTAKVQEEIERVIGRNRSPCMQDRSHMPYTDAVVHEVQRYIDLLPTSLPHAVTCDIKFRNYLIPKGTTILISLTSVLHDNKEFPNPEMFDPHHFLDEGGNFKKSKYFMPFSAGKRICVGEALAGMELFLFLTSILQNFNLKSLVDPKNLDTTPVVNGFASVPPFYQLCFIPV
Outline: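 CYP2C9 activity was measured with a P450-Glo proluciferin substrate. Enzyme–substrate mix was held with compound for 10 min at room temperature, then NADPH regeneration solution was added for 1 h at 37C. Luciferin product was read as luminescence.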

[13] = target: Glucocorticoid receptor (Homo sapiens) (UniProt P04150); test: qHTS assay to identify small molecule antagonists of the glucocorticoid receptor (GR) signaling pathway (AID 720692; active means well fitted inhibition curve with a large enough effect in the signal ratio in the repeat runs, not every such curve was filed as active; inconclusive means weak or mixed curves, or effect the other way; inactive means no such curve, though single readings can be large or run the other way; the % refers to the signal ratio; further: on the % scale 0 is the no-effect control and ±100 the full control effect); settings: GR-bla HeLa, beta-lactamase FRET ratio, dexamethasone-stimulated, 18 h; activity change, negative = inhibition: at 58.5 µM (top of the series) unless noted
UniProt P04150, sequence (P04150 whole entry, looked up): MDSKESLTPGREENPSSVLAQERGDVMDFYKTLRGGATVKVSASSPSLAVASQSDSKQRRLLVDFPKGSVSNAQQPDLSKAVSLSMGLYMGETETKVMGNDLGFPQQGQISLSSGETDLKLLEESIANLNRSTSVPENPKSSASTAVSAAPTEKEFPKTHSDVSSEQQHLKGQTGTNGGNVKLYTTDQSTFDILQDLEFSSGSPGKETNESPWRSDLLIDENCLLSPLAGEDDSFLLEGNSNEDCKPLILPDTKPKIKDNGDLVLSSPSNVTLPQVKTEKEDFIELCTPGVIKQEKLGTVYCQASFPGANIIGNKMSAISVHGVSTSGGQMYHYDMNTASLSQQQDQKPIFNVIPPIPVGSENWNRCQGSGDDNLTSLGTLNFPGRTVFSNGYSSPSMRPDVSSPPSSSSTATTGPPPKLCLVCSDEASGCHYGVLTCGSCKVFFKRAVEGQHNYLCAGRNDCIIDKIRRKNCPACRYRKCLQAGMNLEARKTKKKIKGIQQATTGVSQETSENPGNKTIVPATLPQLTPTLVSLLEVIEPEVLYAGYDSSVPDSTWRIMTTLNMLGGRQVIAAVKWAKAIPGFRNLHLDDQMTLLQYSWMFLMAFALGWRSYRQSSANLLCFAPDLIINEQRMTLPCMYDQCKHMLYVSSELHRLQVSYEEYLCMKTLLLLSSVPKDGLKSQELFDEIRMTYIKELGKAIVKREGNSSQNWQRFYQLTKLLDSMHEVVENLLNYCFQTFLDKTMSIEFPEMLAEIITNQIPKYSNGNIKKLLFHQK
Outline: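 Dexamethasone (5 nM final) stimulated a stably integrated GRE-beta-lactamase reporter in HeLa cells during 18 h co-incubation with compounds; signal was quantified as fluorescence intensity of B/G FRET substrate after 2 h.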

[14] = qHTS assay for identifying genotoxic compounds that show differential cytotoxicity against isogenic chicken DT40 cell lines with known DNA damage response pathways - wild type cell line (AID 743012); settings: DT40 wild type chicken cells viability, CellTiter-Glo, 40 h; activity change, negative = cytotoxicity: at 68.4 µM (top of the series) unless noted; further: nearly all actives have a fitted effect of over 60% in size; further: potency means the concentration at half of the fitted maximal effect
Outline: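 Using parental DT40 (300 cells/well), compounds delivered in DMSO incubate 40 h at 37 C/5% CO2. CellTiter-Glo reagent then stands 30 min at room temperature, and luminescence gives cell viability.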

[15] = target: Progesterone receptor (Homo sapiens) (UniProt P06401); test: qHTS assay to identify small molecule antagonists of the progesterone receptor (PR) signaling pathway (AID 1346795; active means well fitted inhibition curve with a large enough effect in the signal ratio in the repeat runs, not every such curve was filed as active; inconclusive means weak or mixed curves; the % refers to the signal ratio; further: on the % scale 0 is the no-effect control and ±100 the full control effect); settings: PR-UAS-bla HEK293T, beta-lactamase FRET ratio, 16 h; activity change, negative = inhibition: at 92.4 µM (top of the series) unless noted
UniProt P06401, sequence (P06401 whole entry, looked up): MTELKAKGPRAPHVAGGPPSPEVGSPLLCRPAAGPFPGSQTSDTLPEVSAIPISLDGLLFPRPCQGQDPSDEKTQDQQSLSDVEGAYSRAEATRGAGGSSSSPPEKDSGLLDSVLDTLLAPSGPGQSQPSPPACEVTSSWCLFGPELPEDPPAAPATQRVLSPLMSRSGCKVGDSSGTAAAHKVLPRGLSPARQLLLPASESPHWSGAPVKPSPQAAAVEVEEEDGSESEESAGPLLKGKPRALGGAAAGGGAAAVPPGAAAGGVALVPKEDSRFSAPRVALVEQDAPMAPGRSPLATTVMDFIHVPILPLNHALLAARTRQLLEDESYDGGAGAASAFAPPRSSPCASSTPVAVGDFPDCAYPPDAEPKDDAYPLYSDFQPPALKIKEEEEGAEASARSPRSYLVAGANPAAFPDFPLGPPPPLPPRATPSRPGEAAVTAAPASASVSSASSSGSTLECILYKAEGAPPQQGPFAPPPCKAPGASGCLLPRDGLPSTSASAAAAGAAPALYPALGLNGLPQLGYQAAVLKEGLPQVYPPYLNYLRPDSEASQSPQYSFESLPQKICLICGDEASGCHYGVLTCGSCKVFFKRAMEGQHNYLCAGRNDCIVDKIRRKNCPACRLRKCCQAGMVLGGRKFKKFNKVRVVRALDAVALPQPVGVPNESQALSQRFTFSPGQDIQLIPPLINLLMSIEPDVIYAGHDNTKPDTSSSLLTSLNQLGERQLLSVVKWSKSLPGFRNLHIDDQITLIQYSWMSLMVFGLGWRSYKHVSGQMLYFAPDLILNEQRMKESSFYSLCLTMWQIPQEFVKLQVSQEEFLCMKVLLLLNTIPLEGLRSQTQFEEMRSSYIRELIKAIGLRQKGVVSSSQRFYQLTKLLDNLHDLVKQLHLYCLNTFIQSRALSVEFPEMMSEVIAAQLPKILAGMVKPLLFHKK
Outline: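 Read-out is fluorescence from the LiveBLAzer B/G FRET substrate, cleaved by a UAS-controlled beta-lactamase in PR-UAS-bla HEK293T cells after 16 hr exposure to compound plus 1 nM promegestone (final), followed by 2 hr at room temperature.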

[16] = qHTS assay to identify small molecule agonists of the progesterone receptor (PR) signaling pathway - cell viability counter screen (AID 1346799; calls by dose curve; further: nearly all actives have a fitted effect of over 45% in size; further: potency means the concentration at half of the fitted maximal effect)
Outline: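 Luminescence from CellTiter-Glo, added after the beta-lactamase FRET read in the same wells, gave cytotoxicity in PR-UAS-bla HEK293T cells treated with compounds for 16 hr at 37C.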

[17] = qHTS assay for small molecule agonists of the p53 signaling pathway (AID 651631; calls by dose curve; further: on the % scale 0 is the no-effect control and ±100 the full control effect; nearly all actives have a fitted effect of over 15% in size); settings: HCT-116 p53RE-bla reporter, beta-lactamase FRET ratio, 16 h; activation: at 73.3 µM (top of the series) unless noted
Outline: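 Read-out is beta-lactamase FRET fluorescence measured 2 h after substrate addition at room temperature, in HCT-116 cells with a p53 response element-driven reporter exposed to compounds for 16 h at 37 °C.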

[18] = target: Luciferin 4-monooxygenase (Photinus pyralis) (UniProt P08659); test: qHTS assay to identify small molecule inhibitors of firefly luciferase (AID 1224835); further: on the % scale 0 is the no-effect control and ±100 the full control effect; nearly all actives have a fitted effect of over 25% in size
UniProt P08659, sequence (P08659 whole entry, looked up): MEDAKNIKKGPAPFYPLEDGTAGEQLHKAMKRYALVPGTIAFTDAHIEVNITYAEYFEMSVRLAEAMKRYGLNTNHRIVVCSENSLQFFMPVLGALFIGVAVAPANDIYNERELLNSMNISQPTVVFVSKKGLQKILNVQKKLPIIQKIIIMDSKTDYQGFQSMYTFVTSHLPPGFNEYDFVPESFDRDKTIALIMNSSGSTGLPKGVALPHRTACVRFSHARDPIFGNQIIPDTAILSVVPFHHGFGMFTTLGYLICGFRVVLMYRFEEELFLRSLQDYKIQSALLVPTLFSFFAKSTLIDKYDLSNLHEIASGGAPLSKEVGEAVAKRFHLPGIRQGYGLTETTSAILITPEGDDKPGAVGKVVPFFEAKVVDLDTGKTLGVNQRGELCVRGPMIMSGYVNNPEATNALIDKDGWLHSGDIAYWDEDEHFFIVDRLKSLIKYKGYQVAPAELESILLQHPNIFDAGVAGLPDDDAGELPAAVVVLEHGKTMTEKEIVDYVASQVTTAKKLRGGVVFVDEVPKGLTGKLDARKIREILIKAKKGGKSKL
Outline: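 Quantitative HTS format; KM concentrations of both substrates. Purified P. pyralis FLuc activity quantified from luminescence images.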

[19] = qHTS assay to identify small molecule antagonists of the progesterone receptor (PR) signaling pathway - cell viability counter screen (AID 1346798)
Outline: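 HEK293T PR-UAS-bla, 2% charcoal-stripped FBS; 4 hr pre-plate; cpd + R5020, 16 h 37C; LiveBLAzer read first; then CellTiter-Glo 30 min RT, luminescence.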

[20] = target: Peroxisome proliferator-activated receptor delta (Homo sapiens) (UniProt Q03181); test: qHTS assay to identify small molecule antagonists of the peroxisome proliferator-activated receptor delta (PPARd) signaling pathway (AID 743215; active means well fitted inhibition curve with a large enough effect in the signal ratio in the repeat runs, not every such curve was filed as active; inconclusive means weak or mixed curves, or effect the other way; inactive means no such curve, though single readings can be large or run the other way; the % refers to the signal ratio;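 further: cells stimulated with agonist L165041 at 300 nM final during compound exposure; on the % scale 0 is the no-effect control and ±100 the full control effect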); settings: HEK293H PPARd-UAS-bla, beta-lactamase FRET ratio, antagonist, 17 h; ratio activity, negative = inhibition: at 62 µM (top of the series) unless noted
Outline: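 With L165041 present at 300 nM final, compounds were incubated 17 h at 37 C on PPARd UAS-bla HEK293H cells. A FRET-based beta-lactamase substrate was then applied for 2 h at room temperature and fluorescence intensity recorded.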

[21] = activation: at 73.3 µM (top of the series) unless noted
Tags describe the fitted curve by direction and shape or compound fluorescence and quenching.

SMILES: c1coc(Cn2cccc2)c1
- Potency [1]: inconclusive: 0.273 µM [rising, single point]
- ratio activity, negative = inhibition [2]: inconclusive: 16.6%
- Potency [3, 21]: inconclusive: 61.1 µM [rising, single point]
- activity change, negative = inhibition [4]: inconclusive: 15.7%
- Potency [5]: inactive
- Potency [6]: inactive
- Potency [7]: inactive
- Potency [8]: inactive

SMILES: NCCNC(=O)c1ccc(Cl)cn1
- ratio activity, negative = MMP loss [9]: inconclusive: -31.7%
- Potency [10]: inconclusive: 15 µM [rising, partial curve, poor fit]
- Potency [5]: inactive
- Potency [11]: inconclusive: 13.8 µM [inhibitor, full curve]
- Potency [12]: inactive
- Potency [8]: inconclusive: 14.4 µM [inhibitor, partial curve]

SMILES: CC(c1cc2ccccc2s1)N(O)C(N)=O (stereo unspecified)
- Potency [9]: inactive and inconclusive: 21.7 µM [inhibitor, full curve, poor fit]
- Potency [13]: inactive
- Potency [14]: inconclusive: 68.6 µM [cytotoxic, single point]
- Potency [10]: inconclusive: 61.1 µM [cytotoxic, partial curve, poor fit]
- activation [3, 21]: inconclusive: 18.9%
- activation ([3]; at 73.3 µM (top of the series)): inactive: 0.477%
- activity change, negative = inhibition [15]: inconclusive: -28.1%
- Potency [16]: inactive
- Potency [11]: inconclusive: 71 µM [inhibitor, partial curve]
- Potency [12]: inconclusive: 34.7 µM [inhibitor, partial curve, poor fit]

SMILES: CCCCC(CC)C(=O)OC(C)C (stereo unspecified)
- activation [17]: inconclusive: 6.31%
- Potency [9]: inconclusive: 0.137 µM [activator, full curve, poor fit]
- Potency [14]: inactive
- Potency [2]: inconclusive: 0.049 µM [activator, full curve, poor fit]
- activity change, negative = inhibition [4]: inconclusive: 25.3%
- Potency [18]: inactive

SMILES: Cc1c(Cl)cccc1Cl
- Potency [9]: inconclusive: 4.86 µM [activator, full curve, poor fit]
- Potency [18]: inactive
- Potency [6]: inactive
- Potency [19]: inconclusive: 27.3 µM [cytotoxic, single point]
- Potency [16]: inconclusive: 68.6 µM [cytotoxic]
- Potency [8]: inconclusive: 39.9 µM [inhibitor, partial curve]

SMILES: C[C@@H](O)C(=O)O
- ratio activity, negative = MMP loss [9]: inconclusive: 9.17% [at 95.3 µM]
- ratio activity, negative = inhibition [20]: inconclusive: 9.14% [at 80.4 µM]
- Potency [4]: inconclusive: 3.05 µM [activator, full curve, poor fit]
- Potency [16]: inconclusive: 30.3 µM [cytotoxic, partial curve, poor fit]
- Potency [8]: inactive

Source: PubChem BioAssay (Tox21)
